Results: the antibiotic and cytotoxicity screens of Wong et al. (2023)
Some of the results follow.

The molecules below were run on HSkMC (human skeletal muscle cells) (assay: cytotoxicity call (relative viability < 0.9)). Details: 10 µM.

SMILES	cytotoxicity call
COc1ccccc1C#Cc1cnc2c(c1)C(=O)N([C@@H](C)CO)C[C@H](C)[C@@H](CN(C)S(=O)(=O)c1cn(C)cn1)O2	inactive
Cc1noc(C)c1NC(=O)Nc1ccc2c(c1)C(=O)N([C@H](C)CO)C[C@H](C)[C@@H](CN(C)S(=O)(=O)c1ccc(Cl)cc1)OCCCC[C@@H](C)O2	inactive
CSCCC(N)C(=O)O (stereo unspecified)	inactive
CC(C)COCC(CN(Cc1ccccc1)c1ccccc1)N1CCCC1.Cl (stereo unspecified)	inactive
CCC(=O)OC1(C(=O)SCF)C(C)CC2C3CC(F)C4=CC(=O)C=CC4(C)C3(F)C(O)CC21C (stereo unspecified)	inactive
C[C@H](CO)N1C[C@H](C)[C@H](CN(C)S(=O)(=O)c2ccc3ccccc3c2)OCc2cnnn2CCCC1=O	inactive
CC(C)NC(=O)N(C)C[C@H]1OCCCC[C@H](C)Oc2ccc(NC(=O)Nc3ccc(C(F)(F)F)cc3)cc2C(=O)N([C@H](C)CO)C[C@H]1C	inactive
COc1ccc(S(=O)(=O)Nc2ccc3c(c2)CC(=O)N([C@@H](C)CO)C[C@H](C)[C@@H](CN(C)Cc2ccc(Oc4ccccc4)cc2)O3)cc1	active
Cc1ccc(S(=O)(=O)N(C)C[C@H]2Oc3ccc(NC(=O)C4CC4)cc3CC(=O)N([C@H](C)CO)C[C@@H]2C)cc1	inactive
CN1CCN(C(=O)C[C@H]2CC[C@@H]3[C@H](COC[C@@H](O)CN3Cc3ccc4c(c3)OCO4)O2)CC1	inactive
C[C@@H]1CN([C@H](C)CO)C(=O)Cc2cc(NC(=O)CCCCCC(=O)Nc3ccccc3N)ccc2O[C@H]1CN(C)C(=O)Nc1ccc(C(F)(F)F)cc1	inactive
